Drawing on patent US4820698A, “Antimicrobial agents and process for their manufacture” (The Procter & Gamble Company, priority 1986, dated 1989), this text covers MIC for five compounds.

The experiment concerns E. Coli (G-), clinical isolate. The experiment can be described thus: In vitro antibacterial activity, standard microdilution MIC assay. It counts as cell-based. Background: Broth dilution looks for growth in wells or tubes with falling amounts of substance.
Setting [1] is: Escherichia coli, E. Coli (G-), clinical isolate, read-out: MIC.

Converted amounts (≈) assume the structure as drawn. Like-named read-outs stand apart in the source and are kept apart here.

A word on the MIC: it is the smallest concentration in the dilution series that meets the test's criterion for growth inhibition.

Turning to `C=C(P(=O)(OC)OC)P(=O)(OC)OC` [A, Tetramethyl ethenylidenebisphosphonate], the MIC (E. Coli (G-), clinical isolate) stood at 520 µg/mL (≈ 2130 µM).
On the same count and under the same terms, the figure for `C=C(P(=O)(OCC)OCC)P(=O)(OCC)OCC` [B, Tetraethyl ethenylidenebisphosphonate] is 6,300 μg/ml.
`C=C(P(=O)(OCCCC)OCCCC)P(=O)(OCCCC)OCCCC` [C, Tetrabutyl ethenylidenebisphosphonate]: the MIC under setting [1] is 25000 µg/mL (≈ 60600 µM).
As to `C[C@@H]1O[C@@H]1P(=O)(O)O` [D, Fosfomycin, reference compound], the MIC (Escherichia coli, read-out: MIC) came to 320 µg/mL (≈ 2320 µM).
On to `CC1(C)S[C@@H]2[C@H](NC(=O)Cc3ccccc3)C(=O)N2[C@H]1C(=O)O` [E, Penicillin G, reference compound], for which the MIC under setting [1] amounted to 260 µg/mL (≈ 778 µM).
